The list shows a part of the results. Sequences were assembled here from the parent chain. Inactive controls read about 0.05.

The chains are these.
B1: TEV protease; numbered along this chain (parent)
chain: MGESLFKGPRDYNPISSSICHLTNESDGHTTSLYGIGFGPFIITNKHLFRRNNGTLVVQSLHGVFKVKDTTTLQQHLVDGRDMIIIRMPKDFPPFPQKLKFREPQREERICLVTTNFQTKSMSSMVSDTSCTFPSGDGIFWKHWIQTKDGQCGSPLVSTRDGFIVGIHSASNFTNTNNYFTSVPKNFMELLTNQEAQQWVSGWRLNADSVLWGGHKVFMVKPEEPFQPVKEATQL

Variants of B1 are the subject of the assay. Put plainly: raw area under fraction-flipped curve 0-4 h after induction (AUC4h, not background-subtracted), DNA-recorder readout of cleavage of the substrate (dimensionless); higher = more cleavage of the substrate by the protease variant. The settings on record: temperature: 34 °C; time window: 0-4 h after rhamnose induction.
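Further: Bxb1 expression induced with 0.2% (w/v) L-rhamnose at OD600 near 0.5, cultures sampled hourly, flipped fraction per protease–substrate barcode pair counted by paired-end Illumina sequencing.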

On to MGESLFKGPRDYNPISSSICHLTNESDGHTTSLYGIGFGPFIITNKHLFRRNNGTLVVQSLHGVFKVKDTTTLQQHLVDGRDMIIIRMPKDFPPFPQKLKFREPPREERICLVTTNFQTKSMSSMVSDTSCTFPSGDGIFWKHWIQTKDGQCGSPLVSTRDGFIVGIHSASNFTNTNNYFTSVPKNFMELLTNQEAQQWVSGWRLNADSVLWGGHKVFMVKPEEPFQPVKEATQL [Q105P], for which the “area with substrate ENLYFQD” value is 0.0431, the “area with substrate ENLYFQH” value was 0.0453, the “area with substrate ENLYFQI” value turned out to be 0.039 and the “area with substrate ENLYFQK” value amounted to 0.0492. In addition, the “area with substrate ENLYFQL” value is 0.0552, the “area with substrate ENLYFQM” value came out at 0.0537, the “area with substrate ENLYFQN” value turned out to be 0.0498 and the “area with substrate ENLYFQP” value came out at 0.0719. Further, the “area with substrate ENLYFQR” value came out at 0.0516, the “area with substrate ENLYFQS” value came out at 0.0515, the “area with substrate ENLYFQV” value is 0.0592 and the “area with substrate ENLYFQW” value is 0.0326.

Turning to MGESLFKGPRDYNPISSSICHLTNESDGHTTSLYGIGFGPFIITNKHLFRRNNGTLVVQSLHGVFKVKDTTTLQQHLVDGRDMIIIRMPKDFPPFPQKLKFREPQREERICLVTTNFQTKSMSSMVSDTSCTFPSGDGIFWKHWIQTKDGQCGSPLVSTRDGFIVGIHSASNFTNTNNYFTSVPKNFMELLTNQEAQQWVSGWRLNADSVLWGGHKVFMVKPEEPRQPVKEATQL [F226R], the “area with substrate ENLYFQD” value worked out at 0.0707, the “area with substrate ENLYFQK” value was 0.0487, the “area with substrate ENLYFQL” value was 0.0815 and the “area with substrate ENLYFQN” value was found to be 0.0767. Besides, the “area with substrate ENLYFQR” value was 0.0559, the “area with substrate ENLYFQS” value is 0.103, the “area with substrate ENLYFQT” value is 0.0987 and the “area with substrate ENLYFQY” value amounted to 0.0657.

Turning to MGESLFKGPRDYNPISSSICHLTNESDGHTTSLYGIGFGPFIITNKHLFRRNNGTLVVQSLHGVFKVKDTTTLQQHLVDGRDMIIIRMPKDFPPFPQKLKFREPQREERICLVTTNFQTKSMSSMVSDTSCTFPSGDGIFWKHWIQTKDGQCGSPLVSTRDGFIVGIHSASNFTNTNHYFTSVPKNFMELLTNQEAQQWVSGWRLNADSVLWGGHKVFMVKPEEPFQPVKEATQL [N178H], the “area with substrate ENLYFQD” value is 0.0802, the “area with substrate ENLYFQF” value is 0.0727, the “area with substrate ENLYFQI” value stood at 0.0471 and the “area with substrate ENLYFQM” value stood at 0.0946. Also, the “area with substrate ENLYFQN” value is 0.0839, the “area with substrate ENLYFQQ” value amounted to 0.064, the “area with substrate ENLYFQS” value came to 0.118 and the “area with substrate ENLYFQW” value is 0.0515.

For MGESLFKGPRDYNPISSSICHLTNESDGHTTSLYGIGFGPFIITNKHLFRRNNGTLVVQSLHGVFKVKDTTTLQQHLVDGRDMIIIRMPKDFPPFPQKLKFREPQREERICLVTTNFQTKSMSSMVSDTSCTFPSGDGIFWKHWIQTKDGQCGSPLVSTRDGFIVGIHSASNFTNTNNYFTSVPKNFMELLTNQEAQQWVSGWRTNADSVLWGGHKVFMVKPEEPFQPVKEATQL [L205T], the “area with substrate ENLYFQD” value came out at 0.0554, the “area with substrate ENLYFQI” value is 0.05, the “area with substrate ENLYFQS” value is 0.0765 and the “area with substrate ENLYFQV” value was determined as 0.0601.

Regarding MGESLFKGPRDYNPISSSICHLTNESDGHTTSLYGIGFGPFIITNKHLFRRNNGTLVVQSLHGVFKVKDTGTLQQHLVDGRDMIIIRMPKDFPPFPQKLKFREPQREERICLVTTNFQTKSMSSMVSDTSCTFPSGDGIFWKHWIQTKDGQCGSPLVSTRDGFIVGIHSASNFTNTNNYFTSVPKNFMELLTNQEAQQWVSGWRLNADSVLWGGHKVFMVKPEEPFQPVKEATQL [T71G], the “area with substrate ENLYFQD” value came out at 0.063, the “area with substrate ENLYFQG” value was found to be 0.0482, the “area with substrate ENLYFQH” value stood at 0.06 and the “area with substrate ENLYFQI” value amounted to 0.0657. Besides, the “area with substrate ENLYFQK” value was found to be 0.0677, the “area with substrate ENLYFQM” value came out at 0.0649, the “area with substrate ENLYFQN” value turned out to be 0.0797 and the “area with substrate ENLYFQP” value is 0.0288. For the same variant, the “area with substrate ENLYFQQ” value stood at 0.0601, the “area with substrate ENLYFQR” value was 0.0716, the “area with substrate ENLYFQS” value stood at 0.0801 and the “area with substrate ENLYFQT” value was determined as 0.0708. For the same variant, the “area with substrate ENLYFQV” value worked out at 0.0727, the “area with substrate ENLYFQW” value came to 0.0571 and the “area with substrate ENLYFQY” value turned out to be 0.0694.

As for MGESLFKGPRDYNPISSSICHLTNESDGHTTSLYGIGFGPFIITNKHLFRRNNGTLVVQSLHGVFKVKDTTTLQQHLVDGRDMIIIRMPKDFPPFPQKLKFREPQREERICLVTTNFQTKSMSSMVSDTSCTFPSGDGIFWKHWIQTKDGDCGSPLVSTRDGFIVGIHSASNFTNTNNYFTSVPKNFMELLTNQEAQQWVSGWRLNADSVLWGGHKVFMVKPEEPFQPVKEATQL [Q151D], the “area with substrate ENLYFQD” value is 0.0888, the “area with substrate ENLYFQG” value was found to be 0.0845, the “area with substrate ENLYFQH” value stood at 0.0833 and the “area with substrate ENLYFQI” value stood at 0.0649. In addition, the “area with substrate ENLYFQL” value is 0.0648, the “area with substrate ENLYFQM” value turned out to be 0.097, the “area with substrate ENLYFQN” value worked out at 0.0789 and the “area with substrate ENLYFQP” value was found to be 0.0595. For the same variant, the “area with substrate ENLYFQS” value came out at 0.105, the “area with substrate ENLYFQT” value was found to be 0.0495, the “area with substrate ENLYFQV” value is 0.126 and the “area with substrate ENLYFQW” value is 0.0718. Also, the “area with substrate ENLYFQY” value worked out at 0.0861.

In the case of MGESLFKGPRDYNPISSSICHLTNESDGHTTSLYGIGFGPFIITNKHLFRRNNGTLVVQSLHGVFKVKDTTTLKQHLVDGRDMIIIRMPKDFPPFPQKLKFREPQREERICLVTTNFQTKSMSSMVSDTSCTFPSGDGIFWKHWIQTKDGQCGSPLVSTRDGFIVGIHSASNFTNTNNYFTSVPKNFMELLTNQEAQQWVSGWRLNADSVLWGGHKVFMVKPEEPFQPVKEATQL [Q74K], the “area with substrate ENLYFQD” value worked out at 0.0718, the “area with substrate ENLYFQG” value turned out to be 0.102, the “area with substrate ENLYFQH” value was 0.0817 and the “area with substrate ENLYFQI” value is 0.0839. For the same variant, the “area with substrate ENLYFQL” value is 0.0589, the “area with substrate ENLYFQM” value was found to be 0.0896, the “area with substrate ENLYFQN” value turned out to be 0.0722 and the “area with substrate ENLYFQP” value is 0.0412. In addition, the “area with substrate ENLYFQR” value is 0.0697, the “area with substrate ENLYFQS” value was determined as 0.0982 and the “area with substrate ENLYFQT” value is 0.065.

Take MRESLFKGPRDYNPISSSICHLTNESDGHTTSLYGIGFGPFIITNKHLFRRNNGTLVVQSLHGVFKVKDTTTLQQHLVDGRDMIIIRMPKDFPPFPQKLKFREPQREERICLVTTNFQTKSMSSMVSDTSCTFPSGDGIFWKHWIQTKDGQCGSPLVSTRDGFIVGIHSASNFTNTNNYFTSVPKNFMELLTNQEAQQWVSGWRLNADSVLWGGHKVFMVKPEEPFQPVKEATQL [G2R]: the “area with substrate ENLYFQD” value was 0.08, the “area with substrate ENLYFQE” value was found to be 0.0987, the “area with substrate ENLYFQH” value is 0.0916 and the “area with substrate ENLYFQI” value is 0.0431. The “area with substrate ENLYFQL” value worked out at 0.0668, the “area with substrate ENLYFQM” value came out at 0.126, the “area with substrate ENLYFQN” value came to 0.0787 and the “area with substrate ENLYFQR” value turned out to be 0.0617. For the same variant, the “area with substrate ENLYFQS” value amounted to 0.124, the “area with substrate ENLYFQT” value came to 0.0601, the “area with substrate ENLYFQW” value worked out at 0.0702 and the “area with substrate ENLYFQY” value came out at 0.0915.

Take MGESLFKGPRDYNPISSSICHLTNESDGHTTSLYGIGFGPFIITNKHLFRRNNGTLVVQSLHGVFKNKDTTTLQQHLVDGRDMIIIRMPKDFPPFPQKLKFREPQREERICLVTTNFQTKSMSSMVSDTSCTFPSGDGIFWKHWIQTKDGQCGSPLVSTRDGFIVGIHSASNFTNTNNYFTSVPKNFMELLTNQEAQQWVSGWRLNADSVLWGGHKVFMVKPEEPFQPVKEATQL [V67N]: the “area with substrate ENLYFQD” value was 0.057, the “area with substrate ENLYFQF” value turned out to be 0.0885, the “area with substrate ENLYFQH” value stood at 0.0503 and the “area with substrate ENLYFQI” value is 0.0536. Moreover, the “area with substrate ENLYFQK” value was 0.0489, the “area with substrate ENLYFQN” value was 0.0624, the “area with substrate ENLYFQP” value amounted to 0.0439 and the “area with substrate ENLYFQR” value came to 0.0646. Also, the “area with substrate ENLYFQS” value is 0.0729 and the “area with substrate ENLYFQT” value worked out at 0.0495.

Regarding MGESLFKGPRDYNPISSSICHLTNESDGHTTSLYGIGFGPFIITNKHLFRRNNGTLVVQSLHGVFKVKDTTTLQQHLVDGRDMIIIRMPKDFPPFPQKLKFREPQREERICLVTTNFQDKSMSSMVSDTSCTFPSGDGIFWKHWIQTKDGQCGSPLVSTRDGFIVGIHSASNFTNTNNYFTSVPKNFMELLTNQEAQQWVSGWRLNADSVLWGGHKVFMVKPEEPFQPVKEATQL [T119D], the “area with substrate ENLYFQD” value amounted to 0.0478, the “area with substrate ENLYFQH” value is 0.0862, the “area with substrate ENLYFQL” value came to 0.0606 and the “area with substrate ENLYFQM” value stood at 0.0671. In addition, the “area with substrate ENLYFQP” value stood at 0.038, the “area with substrate ENLYFQR” value was 0.0632, the “area with substrate ENLYFQS” value came out at 0.0958 and the “area with substrate ENLYFQY” value came to 0.0766.

The record behind these values is the supplement of paper PMC12217912.
